Experimental data published in PubChem BioAssay AID504937 (National Center for Advancing Translational Sciences (NCATS), 2011).
Among all 340,000 compounds or so, about 20 (0.006%) were called active. Inconclusive means that the source gave no clear call. Such entries were picked first, then a sample of the others. The call rests on the fitted dose curve; in most records, active means well fitted inhibition curve with a large enough effect; inconclusive means small, poorly fitted or top-dose-only effect; inactive means no such curve, though single readings can be large or run the other way. Potencies beside an inconclusive call are fits to weak or partial responses and may not hold up.

biological target: Sphingomyelin phosphodiesterase (Homo sapiens) (UniProt P17405); assay: Inhibitors of Secretory Acid Sphingomyelinase (S-ASM): qHTS; settings: placental ASM, HMU-PC fluorogenic substrate (series up to 57.5 µM), 60 min; activity change, negative = inhibition: at the top concentration
Sequence of UniProt P17405 (P17405 whole entry, looked up): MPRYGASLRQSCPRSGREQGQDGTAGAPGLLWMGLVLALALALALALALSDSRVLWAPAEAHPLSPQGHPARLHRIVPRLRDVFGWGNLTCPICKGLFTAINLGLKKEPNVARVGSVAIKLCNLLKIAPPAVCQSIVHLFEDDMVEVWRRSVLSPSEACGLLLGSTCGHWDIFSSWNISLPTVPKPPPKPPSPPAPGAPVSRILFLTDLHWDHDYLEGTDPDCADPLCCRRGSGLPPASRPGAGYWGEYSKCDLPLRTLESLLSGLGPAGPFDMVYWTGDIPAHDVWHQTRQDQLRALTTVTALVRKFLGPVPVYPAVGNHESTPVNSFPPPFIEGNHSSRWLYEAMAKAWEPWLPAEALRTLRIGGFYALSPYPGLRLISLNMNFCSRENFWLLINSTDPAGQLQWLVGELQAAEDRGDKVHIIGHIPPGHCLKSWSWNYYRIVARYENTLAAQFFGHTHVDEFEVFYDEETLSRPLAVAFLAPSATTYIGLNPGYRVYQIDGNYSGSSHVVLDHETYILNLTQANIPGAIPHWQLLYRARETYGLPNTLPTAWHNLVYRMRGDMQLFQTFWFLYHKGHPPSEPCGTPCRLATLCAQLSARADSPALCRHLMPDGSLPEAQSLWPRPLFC
Summary of the method: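 Human placenta-derived ASM preincubated with compound 10 min at room temperature, then reacted with 9 uM (final) fluorogenic HMU-PC substrate for 60 min at 37 C. Stop solution raises pH to 10; fluorescence read at Ex 386/Em 447 nm.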
Potency means the concentration at half of the fitted maximal effect; tags describe the fitted curve by direction and shape.

Row | SMILES | activity change, negative = inhibition | Potency
1 | COc1ccc(OC)c(S(=O)(=O)N2CCN(c3ccccc3)CC2)c1 | inactive: -8.04% | 
2 | CCC(C)Nc1nc(-c2ccc3c(c2)NC(=O)CO3)cs1 (stereo unspecified) | inactive: -5.99% | 
3 | Cc1nc(C(=O)Nc2ccccc2)sc1C1(C)CC(c2cccc([N+](=O)[O-])c2)=NO1 (stereo unspecified) | inactive: -11.6% | 
4 | CCCCCCCCOC(=O)c1c(CSC(=N)N)n(C)c2cc(Br)c(OC(C)=O)cc12 |  | active: 31.6 µM
5 | CN(CC(=O)Nc1cccc(F)c1)C(=O)c1cc(S(=O)(=O)N2CCN(c3ccccc3)CC2)ccc1Cl |  | inconclusive: 447 µM [inhibitor, partial curve, poor fit]
6 | O=C(NCCCN1CCOCC1)c1ccc2c(=O)n(Cc3ccc(Cl)cc3)c(=S)[nH]c2c1 |  | inconclusive: 70.8 µM [inhibitor, partial curve]
7 | CC(=O)c1c(C)[nH]c(C(=O)Nc2nc(-c3ccc(-c4ccccc4)cc3)cs2)c1C |  | inconclusive: 200 µM [inhibitor, partial curve]
8 | COc1ccc(-c2csc(NC(C)c3nc4cc(Cl)c(N5CCCCC5)cc4n3CCOCCO)n2)cc1 (stereo unspecified) |  | inconclusive: 100 µM [inhibitor, partial curve, poor fit]
9 | CCOC(=O)c1c(C)[nH]c(C2=NNC(=Nc3ccc(OCC)cc3)SC2)c1C |  | inconclusive: 20 µM [inhibitor, single point]
10 | O=C(O)c1cccc(NC(=S)NC(=O)c2cccc(OCc3ccccc3)c2)c1 |  | inconclusive: 112 µM [inhibitor, partial curve, poor fit]
11 | O=C(NC(NNc1ccc([N+](=O)[O-])cc1)(C(F)(F)F)C(F)(F)F)c1ccccc1Cl |  | inconclusive: 100 µM [inhibitor, partial curve, poor fit]
12 | CS(=O)(=O)c1ccc2nc(NC(=O)C3CC(=O)N(c4ccc(F)cc4)C3)sc2c1 (stereo unspecified) |  | inconclusive: 224 µM [inhibitor, partial curve, poor fit]
13 | O=C(Cc1c(F)cccc1Cl)Nc1ccccc1C(=O)N1CCCCC1 | inactive: 3.91% | 
14 | Cc1cccc(C(=O)N2CCN(c3ccc([N+](=O)[O-])c(NCc4ccco4)c3)CC2)c1 |  | inconclusive: 316 µM [inhibitor, partial curve, poor fit]
15 | CN(C1CCCCC1)S(=O)(=O)c1ccc(C(=O)Nc2sc3c(c2C(N)=O)CC(C)(C)NC3(C)C)cc1 |  | inconclusive: 79.4 µM [inhibitor, single point]
16 | Cc1cc(C)c2cc3c(N)c(C(=O)Nc4c(C)[nH]c(=O)[nH]c4=O)sc3nc2c1 | inactive: 16% | 
17 | Cc1ccccc1OCC(=O)NC(=S)Nc1ccc(S(=O)(=O)NC2CCCCC2)cc1 |  | inconclusive: 158 µM [inhibitor, partial curve, poor fit]
18 | CN1Cc2c(N3CCOCC3)nc3sc(C(=O)c4ccc(Br)cc4)c(N)c3c2CC1(C)C |  | inconclusive: 70.8 µM [inhibitor, partial curve, poor fit]
19 | O=C(CCc1nc2ccccc2c(=O)[nH]1)Nc1cc(Cl)ccc1N1CCCCC1 |  | inconclusive: 100 µM [inhibitor, partial curve, poor fit]
20 | Cc1ccc(NS(=O)(=O)c2ccc(NC(=O)c3cccs3)cc2)c(C)c1 |  | inconclusive: 112 µM [inhibitor, partial curve, poor fit]
21 | COc1ccc(NC(=O)CN(C)C(=O)c2cc3c(s2)CCCCC3)cc1 | inactive: -1.64% | 

Row | SMILES | activity change, negative = inhibition | Potency
22 | COc1cccc(S(=O)(=O)NCc2ccc(C(=O)Nc3cccc(Cl)c3)cc2)c1 |  | inconclusive: 89.1 µM [inhibitor, single point]
23 | CCOC1=C/C(=C/c2c(N)n3nc(CC(=O)N4CCCCC4)sc3nc2=O)C=CC1=O |  | inconclusive: 447 µM [inhibitor, partial curve, poor fit]
24 | CC(=O)c1cccc(NC(=S)N2c3ccccc3CC2C)c1 (stereo unspecified) | inactive: 4.77% | 
25 | C[C@H]1CN([C@@H](C)CO)C(=O)c2cccc(NC(=O)Nc3ccc(C(F)(F)F)cc3)c2O[C@@H]1CN(C)S(=O)(=O)c1ccccc1 |  | inconclusive: 63.1 µM [inhibitor, partial curve, poor fit]
26 | CCOC(=O)c1c(-c2ccc(C)c(C)c2)csc1NC(=O)C1CC=CCC1C(=O)O (stereo unspecified) |  | inconclusive: 63.1 µM [inhibitor, partial curve, poor fit]
27 | O=C(NNC1CC(=O)N(c2ccc(Br)cc2)C1=O)c1cccnc1 (stereo unspecified) | inactive: 1.62% | 
28 | Cc1csc2ncnc(N3CCN(C(=O)Nc4ccc(OC(F)(F)F)cc4)CC3)c12 | inactive: -26.5% | 
29 | CCCCN(C)C(=O)c1cc2cc3cc(OC)ccc3nc2o1 | inactive: 166% | 
30 | COc1ccc(/C=C2/SC(=S)N(Cc3ccccc3)C2=O)cc1O |  | inconclusive: 79.4 µM [inhibitor, partial curve]
31 | CCCCCCCCCC(=O)N/N=C/c1ccc(C)s1 |  | inconclusive: 79.4 µM [inhibitor, partial curve, poor fit]
32 | C=C(C)COc1ccc(-c2nc(N)ncc2-c2ccc(Br)cc2)c(O)c1 | inactive: -11.9% | 
33 | Cc1ccc(-c2csc3n[nH]c(=S)n23)cc1 | inactive: 0.109% | 
34 | CN(CC(=O)Nc1ccc(OC(F)(F)F)cc1)C(=O)/C=C/c1cc2c(cc1[N+](=O)[O-])OCO2 |  | inconclusive: 200 µM [inhibitor, partial curve, poor fit]
35 | O=C(Nc1ccncc1)c1ccc2c(c1)S(=O)(=O)c1ccccc1C2=O | inactive: 1.97% | 
36 | NC(=O)N/N=C/c1ccccc1OCC(=O)NCc1ccccc1 |  | inconclusive: 89.1 µM [inhibitor, single point]
37 | CC(C)(C)c1nnc(NC(=O)COc2ccc3c(c2)OCO3)s1 | inactive: 3.53% | 
38 | Cc1ccc(Nc2nc(-c3ccc(S(=O)(=O)N4CCOCC4)cc3)cs2)cc1 | inactive: 26.6% | 
39 | O=C(Oc1csc(=S)n1C(=O)c1ccccc1)c1ccccc1 | inactive: -0.107% | 
40 | CCOC(=O)C1=C(C)N=C2c3ccccc3C(=O)C2C1c1ccc(Cl)cc1 (stereo unspecified) |  | inconclusive: 79.4 µM [inhibitor, partial curve, poor fit]
41 | Cc1cc(N2CCN(c3nc(-c4ccccc4)cs3)CC2)c2ccccc2n1 |  | inconclusive: 562 µM [inhibitor, partial curve, poor fit]
